# Source: PubChem BioAssay AID488969 (Vanderbilt High Throughput Screening Facility, 2010)
# Over roughly 110,000 compounds, “z-score” has its median near -0.1; the highest 2% begin near 2. The list shows a part of the results. The source made the active and inactive calls.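 How the source made its calls: active means z-score in the third read window above 3 or below -3; inactive means the rest.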
# Target: Metabotropic glutamate receptor 8 (Rattus norvegicus) (UniProt P70579)
# Experiment: mGluR8 Gi/Go-coupled signaling modulation – cell-based, rat, thallium flux, HTS, primary screen (AID 488969)
# Details: HEK293 rat mGluR8, GIRK (G protein-gated inwardly rectifying potassium channel) thallium flux, FluoZin2; at 10 µM; stronger effect = higher value; submaximal glutamate (EC20) added with thallium
# Chain of UniProt P70579 (P70579 whole entry, looked up): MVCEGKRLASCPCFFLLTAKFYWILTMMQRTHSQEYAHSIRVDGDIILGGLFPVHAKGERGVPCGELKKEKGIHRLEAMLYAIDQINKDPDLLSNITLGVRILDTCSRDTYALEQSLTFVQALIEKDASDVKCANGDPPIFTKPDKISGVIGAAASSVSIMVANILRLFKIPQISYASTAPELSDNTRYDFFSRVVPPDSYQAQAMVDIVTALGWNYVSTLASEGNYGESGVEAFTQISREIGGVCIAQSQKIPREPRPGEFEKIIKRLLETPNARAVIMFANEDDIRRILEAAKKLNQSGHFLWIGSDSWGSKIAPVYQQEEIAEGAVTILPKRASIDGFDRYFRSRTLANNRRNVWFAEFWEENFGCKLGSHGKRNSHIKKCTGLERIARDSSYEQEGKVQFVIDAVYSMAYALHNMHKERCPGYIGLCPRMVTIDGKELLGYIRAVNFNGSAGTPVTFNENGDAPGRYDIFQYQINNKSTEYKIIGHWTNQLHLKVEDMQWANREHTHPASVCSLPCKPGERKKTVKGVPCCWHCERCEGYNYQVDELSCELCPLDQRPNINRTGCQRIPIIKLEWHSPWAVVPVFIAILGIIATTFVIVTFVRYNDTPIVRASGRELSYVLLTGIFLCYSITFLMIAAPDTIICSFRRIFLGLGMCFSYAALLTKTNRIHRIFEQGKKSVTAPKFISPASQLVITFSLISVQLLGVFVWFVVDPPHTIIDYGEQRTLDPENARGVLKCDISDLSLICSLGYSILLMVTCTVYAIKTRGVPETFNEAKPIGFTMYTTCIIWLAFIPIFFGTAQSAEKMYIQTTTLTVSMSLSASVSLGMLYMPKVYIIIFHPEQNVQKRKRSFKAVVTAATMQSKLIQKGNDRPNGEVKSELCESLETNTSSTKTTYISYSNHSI
row,SMILES,z-score
1,CSc1nnc2c(n1)OC(c1cccn1C)N(C(C)=O)c1ccccc1-2 (stereo not drawn),-0.0952
2,Cn1ncc(Br)c1C(=O)N1CCOCC1,-0.293
3,CC(CC(=O)N1CCc2ccccc21)c1ccccc1 (stereo not drawn),-0.596
4,CCCn1c(NCc2cc(C)ccc2O)nc2ccccc21,-0.844
5,O=C1Nc2ccc(S(=O)(=O)N3CCOCC3)c3cccc1c23,0.858
6,COC(=O)c1ccc(NC(=O)C23CC4CC(C2)CC(n2cncn2)(C4)C3)cc1,-0.166
7,CCOC(=O)N1CCN(C(=O)COc2ccc(Cl)cc2C)CC1,-0.175
8,N#Cc1c(-c2ccccc2)c(-c2ccccc2)nn(CC(=O)NNC(=O)Nc2ccc(Cl)c(Cl)c2)c1=O,0.23
9,NC(=O)c1ccccc1NC(=O)Nc1cccc(Cl)c1Cl,-0.0164
10,CC1(C)Cc2noc(N)c2C(C)(C)N1OC(=O)c1cccs1,-0.388
11,OC(COCCC12CC3CC(CC(C3)C1)C2)CN1CCCCC1 (stereo not drawn),-0.152
12,O=C(O)CC(NC(=S)NCc1ccccc1)C(=O)O (stereo not drawn),-0.297
13,Cc1ccc(NC(=O)CSCC(=O)Nc2ncc3c(n2)CC(c2ccco2)CC3=O)cc1 (stereo not drawn),-0.196
14,CSCCC(NS(=O)(=O)c1ccc(Cl)cc1)C(=O)OCC(=O)N(C(C)C)C(C)C (stereo not drawn),-0.294
15,CC(C)OCCCNC(=O)C(C)Oc1ccccc1 (stereo not drawn),-0.305
16,S=C(NCCSCc1ccc(Cl)cc1)Nc1ccccc1,0.852
17,COc1cccc(C(=O)NC2=NCCS2)c1OC,-0.64
18,O=C(NCCc1ccccc1)c1nc2nc(-c3cccs3)cc(C(F)(F)F)n2n1,-1.35
19,Cc1cc(/C=N/NC(=O)c2ccc(CN3CCOCC3)cc2)c(C)n1-c1ccccc1,0.0571
20,CC(C)CCn1c(Oc2ccccc2Cl)nc2c1c(=O)n(C)c(=O)n2C,-0.1
21,CC(C)C(c1nnnn1Cc1ccccc1)N1CCN(Cc2ccco2)CC1 (stereo not drawn),0.49
22,CCOC(=O)c1[nH]c(C)c(C(=O)OCC(=O)N2CC(=O)Nc3ccccc32)c1C,-0.201
23,CCN(CC)S(=O)(=O)c1ccc(N2CCOCC2)c(NS(=O)(=O)c2ccc(C(C)C)cc2)c1,-0.0821
24,CCOc1ccc(CCNC(=O)CSCc2ccc(C)cc2)cc1OCC,-0.118
25,Cc1cc(=O)oc(C)c1C(=O)NC1CC(C)(C)NC(C)(C)C1,0.378

row,SMILES,z-score
1,N/C(=N\OC(=O)COc1ccc(Br)cc1)c1cccnc1,-0.497
2,CCOC(=O)Nc1ccc2ncn(C)c(=O)c2c1,0.00465
3,O=C(c1cccs1)N1CCCc2ccccc21,0.147
4,FC(F)(F)c1cccc(Oc2cc(C(F)(F)F)nc(-c3ccccn3)n2)c1,0.0345
5,COc1ccc2c(c1)c1nc3ccccc3nc1n2Cc1ccc(OC)c(OC)c1,-0.548
6,CC1=CC(C)(C)N(S(=O)(=O)c2ccc(F)cc2)c2ccccc21,0.525
7,CCOCCCNC(=O)c1cn(C)c(=O)c2cc(OC)c(OC)cc12,-0.303
8,O=C(c1cc(-c2ccc(Cl)cc2)n(-c2ccc(Cl)cc2)n1)N1CCOCC1,-0.393
9,COc1cccc2cc(C(=O)Oc3ccc(NC(C)=O)cc3)c(=O)oc12,-1.16
10,CCOc1ccc(Nc2oc(-c3ccc(Cl)cc3)nc2C#N)cc1,-0.151
11,Cc1nc2cc(NC(=O)CCS(=O)(=O)c3ccccc3)ccc2s1,1.07
12,CC(=O)NC(C)C12CC3CC(CC(C(=O)O)(C3)C1)C2 (stereo not drawn),0.0652
13,COc1ccc(/C=N/n2cncn2)cc1COc1ccc(NC(C)=O)cc1,-0.985
14,COc1cc(OC)cc(C(=O)Nc2nnc(NC(=S)Nc3ccccc3)s2)c1,-0.0492
15,CCOc1ccc(NC(=S)NN2C(C)CCCC2C)cc1 (stereo not drawn),1.75
16,CSc1nc(N(C)NC(=O)c2cccc(C)c2)c2ccccc2n1,-0.486
17,CCOc1ccc(C(=O)C(c2ccccc2)N2CCOCC2)cc1 (stereo not drawn),-0.418
18,c1ccc(-c2nnc3ccc(N4CCCC4)nn23)cc1,active: -4.38
19,CNC(=O)Cn1c(=O)n(C)c2ccccc21,0.0314
20,Cc1ccccc1NC(=O)CSc1ccc(-c2ccco2)nn1,1.06
21,Cc1ccc(C2CC(c3ccccc3Cl)n3nc(N)nc3N2)cc1 (stereo not drawn),0.387
22,O=C(COc1ccccc1)NC(=S)Nc1cccc([N+](=O)[O-])c1,active: 11.8
23,CCC1(C)Cc2ccccc2-c2nc(NCCO)[nH]c(=O)c21 (stereo not drawn),0.239
24,COc1ccc(NC(=O)CSc2nc3ccccc3n2-c2ccccc2)c([N+](=O)[O-])c1,-0.384
25,CNC(=O)CC1C(=O)N(C)C(=S)N1NC(=O)c1ccc(Cl)cc1 (stereo not drawn),0.139

row,SMILES,z-score
1,CC(=O)Nc1cc(OC(C)=O)c2nonc2c1OC(C)=O,0.236
2,O=C(NCCNS(=O)(=O)c1ccccc1Cl)c1cc(OCC(F)(F)F)ccc1OCC(F)(F)F,-0.393
3,CC(C)OCCCn1c(SCC(=O)N2CCc3ccccc32)nc2ccccc2c1=O,0.43
4,CCOc1ccc(/C(O)=C/C(=O)C(=O)Nc2ccc(S(=O)(=O)NC(C)=O)cc2)cc1,-0.2
5,O=C(O)CCn1ccnc1-c1ccccc1,0.126
6,CC1CCN(C(=O)CCc2ccc(S(=O)(=O)NC(C)C)cc2)CC1,0.258
7,CCOc1nc(-c2ccccc2)ccc1-c1noc(-c2ccco2)n1,0.468
8,CCn1c(SCc2ccccc2Cl)nc2ccccc21,0.866
9,Cc1ccnc(SCC(=O)c2cccc([N+](=O)[O-])c2)n1,0.317
10,CCOC(=O)C1NC(=O)CC1c1ccccc1 (stereo not drawn),-0.425
11,Cc1nc([N+](=O)[O-])c(Br)n1CC(=O)c1ccc2ccccc2c1,-0.244
12,N#Cc1cc(-c2ccccc2)cnc1Sc1ccc(Cl)cc1,-0.124
13,CSc1nc2ccc(NC(=O)c3ccco3)cc2s1,-0.436
14,O=C(CN1CCc2[nH]c3ccccc3c2C1)N1CCCCC1,-0.261
15,Cc1c(-c2ccc(F)cc2)nc(N)c(C#N)c1-c1ccco1,-0.164
16,COc1ccc(-c2ccc(C#N)c(SCC(=O)OCc3ccccc3)n2)cc1OC,-0.104
17,O=C(O)CSc1cccc[n+]1[O-],-0.138
18,COc1ccc2oc(=O)c(C(=O)N3CCc4ccccc43)cc2c1,-0.212
19,CCOC(=O)C1=C(C)NC(=O)NC1c1ccc(Br)o1 (stereo not drawn),2.92
20,O=C1C=C(Nc2ccccc2O)c2ccccc2C1=O,0.327
21,COC(=O)Nc1nc2c(C)cccc2s1,0.241
22,O=C(CCN1C(=O)CSC1=O)Nc1ccc(Br)cc1,0.938
23,O=C(Cn1nnc(-c2ccccc2Cl)n1)N/N=C/c1ccc(-c2cccc(Cl)c2)o1,-0.0407
